This is an account of results in the supplement of paper PMC10126150.

Sequences with one replicate were seen in a single cluster, so their values are uncertain.

The test system of the data set is ATP. Nature of the data set: switch fluorescence ratio, 500 uM ATP over buffer (Cy3 cluster intensity, sum of 5 cycles each) (fold (ratio)); higher = stronger signal-on switching upon ATP binding; sequences stand for … in TCGTCGGCAGCGTCAGATGTGTATAAGAGACAGTTTTTTTTTTTTTTTTTTTTTTTTT…TC. As to conditions: aptamer strand: ATP DNA aptamer (quencher-CACCTGGGGGAGTATTGCGGAGGAAGG + anchor), 100 nM annealed; ATP concentration: 500 uM; one replicate. An outline of the steps: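 Cy3-labelled switching-strand clusters on a modified Illumina MiSeq flow-cell were annealed to 100 nM quencher-labelled ATP aptamer, imaged in selection buffer, then imaged after 15 min with 500 uM ATP at 22 °C. Five buffer/ATP cycles ran, with NaOH stripping and re-annealing between them. The fluorescence ratio is summed target-cycle over summed buffer-cycle Cy3 intensity per cluster, averaged per switch-domain sequence. Clusters outside 100-1000 RFU were excluded.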
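Further: ATP exposure 15 min at 22 °C before imaging.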

Regarding GAGCAGAGCA, the switch fluorescence ratio came to 0.982.
To GATTTCGCAC belongs 1.35; to CCCTTCCCG, 1.51.
On to AAAGCTGGT, for which the switch fluorescence ratio is 1.04.
On to AAGTAAATAA, for which the switch fluorescence ratio stood at 1.04.
On to GTCGTCTGTG, for which the switch fluorescence ratio stood at 0.947.
On to CCACCCCGCA, for which the switch fluorescence ratio came out at 2.67.
To ATTTGAACTA belongs 0.985.
For GCTCAACGAT, the switch fluorescence ratio amounted to 1.06.
In the case of GGCGAAGGT, the switch fluorescence ratio is 0.959.
ATTACTTTCG: the switch fluorescence ratio was 0.987.
On to GGCACAGGAG, for which the switch fluorescence ratio was 1.18.
To AAAAGGAAAT belongs 1.02.
To TAATATTGTC belongs 0.942; to AGCCAACAT, 1.06.
TGTGTCTATT: the switch fluorescence ratio was determined as 0.97.
In the case of GCTGATCCGT it was 1.09; in that of GGTTAATCAC, 0.981.
Take ATAATTAGTG: the switch fluorescence ratio is 1.01.
To TCAAAATGCG belongs 1; to GAATATAGTA, 1.02; to CCAATACGC, 2.64.
On to CTATAGGCGA, for which the switch fluorescence ratio is 1.01.
Take TTGCTTCAGA: the switch fluorescence ratio was determined as 0.976.
As for TATCCGGAGG, the switch fluorescence ratio was 1.12.
To CGTGTTTTG belongs 0.955; to TTTATAGAA, 0.997.
Take ACGTACGCCT: the switch fluorescence ratio was determined as 1.38.
As for ATGAAATCCT, the switch fluorescence ratio came out at 1.11.
To TCGTAGCTCA belongs 1.49.
Consider GTTGGTCAA, for which the switch fluorescence ratio turned out to be 0.994.
As for GCTTTTTTC, the switch fluorescence ratio stood at 0.973.
To AATGCAGACT belongs 1.03.
To GATGGACGCA belongs 1.1.
In the case of CTGTTGACGG it was 0.951; in that of GCTCTCATTA, 1.
For the sequence TGAGCGTTGT, the switch fluorescence ratio amounted to 0.944.
With TCTTAGAGGA, the switch fluorescence ratio was 1.01.
As for GGCCAGGGAT, the switch fluorescence ratio worked out at 1.07.
To GGAGCGCGGT belongs 1.02; to GCCTATTCGC, 0.953; to CACAAAGCAG, 1.07.
In the case of AACGTTGACC it was 1.2; in that of TCTGCCGCGC, 1.96; in that of TCGAGCTGGG, 0.992.
To GATGCCGCCC belongs 1.16.
Regarding TAAGAGCACT, the switch fluorescence ratio is 1.01.
Consider AGATTTGGGG, for which the switch fluorescence ratio is 0.967.
In the case of GCCTTTTGGT it was 0.992.
Turning to TGTCAATATC, the switch fluorescence ratio was found to be 1.76.
For the sequence CTGAGATGAG, the switch fluorescence ratio was found to be 1.01.
For CTCTTGCTGG, the switch fluorescence ratio came out at 1.01.
In the case of GGAAGAAGTT it was 1.04; in that of GGGCTACACA, 0.958; in that of AACTGAATT, 0.997.
To AGCGGAGGTA belongs 0.964; to GTCCCCTGGC, 1.2.
As to GACGGCTTCA, the switch fluorescence ratio is 0.947.
On to TATGACCCGC, for which the switch fluorescence ratio is 1.26.
In the case of ATAACTCTAT it was 1.05.
In the case of ATAGGACCCG it was 1.07; in that of TAATCAATGA, 1.03; in that of GGTCATCCAC, 1.02.
On to TACAGTGACT, for which the switch fluorescence ratio stood at 1.04.
To AATTTATGCC belongs 0.983.
With GACAGATGTT, the switch fluorescence ratio was found to be 1.02.
In the case of GGCGTAGTGG it was 0.975.
Regarding TTTGTGTCGG, the switch fluorescence ratio was 0.97.
To ATTCTCCC belongs 1.1.
In the case of ATTGGACATT it was 1.02.
To GGTTAAATCT belongs 1.03; to AGGGTACAGC, 1.05.
Take CCTTGTCGCT: the switch fluorescence ratio worked out at 1.1.
On to ATAGTTCGCA, for which the switch fluorescence ratio was 1.01.
In the case of AACGACATGG it was 1.27; in that of ACAATGACGA, 1.14.
To GGTCAAGGGA belongs 1.01.
In the case of CCTAGTAGG it was 1.04; in that of GACTACAACT, 1.03.
For CTCAGGACGC, the switch fluorescence ratio is 0.985.
Turning to TAACACTGCC, the switch fluorescence ratio is 1.16.
To CTGCTCGACA belongs 1.05; to GGTAACTTAT, 0.985.
In the case of TACGGGTTGT it was 1.02; in that of GGTGTCTTGA, 1.01.
On to TTTCGGCCTA, for which the switch fluorescence ratio is 1.01.
TTGGTGTAAT: the switch fluorescence ratio turned out to be 1.01.
In the case of AGGACAGTTG it was 0.962; in that of ACATAGAGTT, 1.01; in that of GCGTTCGAAC, 1.02.
To TGCATAACTA belongs 1.03; to AGGGGCTAGT, 0.991; to TTGGCGTCCT, 1.04.
Take GCTTATGCAG: the switch fluorescence ratio was 0.969.
To CAATCCATCG belongs 0.996; to ATGCGCGGAT, 1.03.
Turning to CGGTGACATA, the switch fluorescence ratio amounted to 1.02.
With GTGGCTTCGA, the switch fluorescence ratio turned out to be 0.997.
Take AATGTACCAA: the switch fluorescence ratio was 1.06.
To TAACTTAATT belongs 1.04.
AGGGATAGGG: the switch fluorescence ratio was found to be 1.02.
In the case of ACTTATTCCT it was 1.02.
Consider AAGCTTAAGT, for which the switch fluorescence ratio is 0.988.
On to CTGGAGTAGC, for which the switch fluorescence ratio was 1.65.
To TAAATCGTTT belongs 0.994.
To CGGTCAGTCG belongs 1.
As for ATTGGGCAGA, the switch fluorescence ratio is 1.
In the case of ATCGGACAGA it was 1.01; in that of CGGAAAGCAA, 2.82.
To GGGCGCCTAC belongs 1.55; to TGATGTGGTA, 0.956; to TTAGCGGTTG, 1.05.
In the case of GTAGGAGGCA it was 0.934; in that of CAAGTTGGTG, 1; in that of ATAGCGGCAC, 1.27.
As to ATTAAGGGTA, the switch fluorescence ratio stood at 1.01.
TATCACTATT: the switch fluorescence ratio was 0.99.
In the case of AGGACGTGGG it was 1.01; in that of GTGTCATTTG, 0.989.
To GCGCGTAGAT belongs 1.04; to TGTGCACGTT, 0.965; to AAGTTGAACT, 0.939.
In the case of GACCTCGGTA it was 1.04.
Consider AGATGCTACA, for which the switch fluorescence ratio is 0.974.
In the case of TGTCCGGGGT it was 1.04; in that of GAGATTGGTC, 1.01.
Regarding TTGATTGGTG, the switch fluorescence ratio turned out to be 1.04.
To GTTTCTTGGC belongs 0.967; to TGTGGCTTGC, 1; to CGCTGCTGCG, 1.02.
For CTCGGTCGCG, the switch fluorescence ratio came out at 0.975.
To AGGAGGAA belongs 1.02; to GGCGTTGACC, 0.998; to GCCAGTAGTC, 1.03.
In the case of ACTGCGGCCC it was 1.02.
As for GAATTCGAAG, the switch fluorescence ratio stood at 0.99.
In the case of TTAACGATCT it was 1.02; in that of GGCTAATAAA, 0.989.
To CTCTGCGCTC belongs 4.25.
On to AAACGCGGCG, for which the switch fluorescence ratio was determined as 0.972.
